Measured values published in the RNAGym collection of RNA variant scans (doi:10.1093/nar/gkz1192).
The source gives no read counts; variants with many changes may rest on few reads.

B1: CPEB3 Ribozyme (parent)
chain: UAACAGGGGGCCACAGCAGAAGCGUUCACGUCGCAGCCCCUGUCAGAUUCUGGUGAAUCUGCGAAUUCUGCUGUAUAUCUC

Variants of: B1
Assay: self-cleavage, relative activity (ratio to wild type); higher = more cleavage; in vitro, sequencing
Procedure, shortened: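 Barcoded CPEB3 ribozyme mutants, produced by rounds of error-prone PCR, self-cleaved while being transcribed with T7 RNA polymerase for 5 hours at 37°C and during a subsequent 15 min DNase I step before EDTA was added. Sequencing of template-switched cDNA on Illumina gave cleaved and total reads, and DNA sequencing assigned barcodes to variants. Each variant's relative activity is its cleaved/total read fraction divided by the unmutated ribozyme's fraction, averaged across three batches. A variant needed a minimum of 5 reads.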
Work on G24U U41A U49C yielded a self-cleavage of 0.19. In the case of G24A U31G C40A A57G A64U C71U U72C, the self-cleavage is reported as 0.05. With G24A U26C U66C U69C U72C the self-cleavage was 0.17. Variant G24C U58C U66C U67C has a self-cleavage of 0.16. G24A U43C U49A gave a self-cleavage of 0.18. G24A C29U U43C A56G A64G A77G gave a self-cleavage of 0.1. With C23G U26C U43G A75G the self-cleavage was 0.06. In the case of G24C A35U A56G A64G U78A, the self-cleavage is reported as 0.05. In the case of C23U A35G U69A U72C A77U, the self-cleavage is reported as 0.21. Variant C23G G42U A57G has a self-cleavage of 0.11. C23U A65G U69C showed a self-cleavage of 0.09. Work on C23U U48C A64U yielded a self-cleavage of 0.19. In the case of G24A A64G U67C U74C, the self-cleavage is reported as 0.16. C23U A56G A75U gave a self-cleavage of 0.35. For C23U C38A U49C A57U U66C, the self-cleavage was 0.11. In the case of C23U U31G U51C U66C U80A, the self-cleavage is reported as 0.06. With G24C U26A U72C the self-cleavage was 0.3. G24A U41C U48C A57G U66A A75U gave a self-cleavage of 0.12. For G24A U26C U41C A45C U49C A65G U72A, the self-cleavage was 0.04. C23G U43C A47G gave a self-cleavage of 0.18. With G24C A64G A65G U80C the self-cleavage was 0.18. Work on U25A A35C U60C yielded a self-cleavage of 0.13. Work on C23U C37G U43C C62A U69C U74C U80G yielded a self-cleavage of 0.07. Work on G24A U41C A56U yielded a self-cleavage of 0.15. G24C U25C A35G A47G showed a self-cleavage of 0.04. With C23U A45G C81G the self-cleavage was 0.32. G24A C29U C44A A47G A65C U67C gave a self-cleavage of 0.05. G24C U41C U51A U54A G63U showed a self-cleavage of 0.09. G24A U25G A35G A64G U80C showed a self-cleavage of 0.12. C23G C59A U60C U72C gave a self-cleavage of 0.06. G24A C37A U54A gave a self-cleavage of 0.08. Work on C23U U43A A64G A65G U74C U76C yielded a self-cleavage of 0.05. Variant C23G U54C U58G U60C A65G U72C has a self-cleavage of 0.04. C23G C62A U72G showed a self-cleavage of 0.09. With C23U A47G U48C the self-cleavage was 0.08. In the case of C23U U43C A56G C68G U76G, the self-cleavage is reported as 0.14. Work on G24U A28C A35U U66C yielded a self-cleavage of 0.17. For G24U A45G A56G U69C, the self-cleavage was 0.09. In the case of C23G G30A A35G A65G U80C, the self-cleavage is reported as 0.11. In the case of C23U A35U U51C U74C A75G, the self-cleavage is reported as 0.17. For G24U U43A U69A, the self-cleavage was 0.28. For C23U A35G U43C, the self-cleavage was 0.41. G24C U25C C34U A45U A47G U67C showed a self-cleavage of 0.08. For C23U A35U U48C U54C, the self-cleavage was 0.13. C23U U67C U72C showed a self-cleavage of 0.09. Work on C23U U43C A45G G52A U54C A75U U80C yielded a self-cleavage of 0.09. For C23G U41A A45G G61C U66C, the self-cleavage was 0.1. For C23G C32A C38U U78C, the self-cleavage was 0.08. With C23U C38U A56G the self-cleavage was 0.07. With G24A U41C U51G A64G U67A the self-cleavage was 0.08. In the case of C23U A35U C39A U69C, the self-cleavage is reported as 0.04. G24A U26C U66C gave a self-cleavage of 0.41. For C23G U26C U43C C44U U48C U60C A65G, the self-cleavage was 0.05. For C23U G24A U25C U41C A65U U72G, the self-cleavage was 0.08. With C23U U31A U69C the self-cleavage was 0.07. U25A A28G U54C A57U U72A gave a self-cleavage of 0. In the case of C23G G42U A64U, the self-cleavage is reported as 0.33. C23U A35U A56G C59U U72C gave a self-cleavage of 0.09. Variant U25A A28G C32U A47U U60C U78C has a self-cleavage of 0.04. Variant G24C C37U A45U U48C U54C U58C A64G has a self-cleavage of 0.16. For G24A A28U A56U, the self-cleavage was 0.14. Variant G24C A45C G52C has a self-cleavage of 0.16. In the case of C23U U41A G63C, the self-cleavage is reported as 0.16. In the case of G24A A28G U41A U74A, the self-cleavage is reported as 0.17. G24A A28G U41A A45G A65G showed a self-cleavage of 0.08. With G24A A47G U51G the self-cleavage was 0.2. For U25A A28G U67C, the self-cleavage was 0.45. With G24A U60C U80A the self-cleavage was 0.15. U25A A35G U69C A75G U76C showed a self-cleavage of 0.12. U25A A35G U69A U80C gave a self-cleavage of 0.19. In the case of G24A A47G U67C, the self-cleavage is reported as 0.11. G24A C40A U76G showed a self-cleavage of 0.21. Work on U25A A35G U41C A56G U60A G61A A64G yielded a self-cleavage of 0.12. With U25A A35U C38U the self-cleavage was 0.23. C23U A35G A56G showed a self-cleavage of 0.57. In the case of G24A U31C A56U, the self-cleavage is reported as 0.16. For C23U U25C A56U U58C U67C, the self-cleavage was 0.1. In the case of G24A A57G U76A, the self-cleavage is reported as 0.12. Variant C23U U25C A47G U51C has a self-cleavage of 0.1. With C23U U41C U43A A65G the self-cleavage was 0.16. Variant G24A A45U U60C A65U has a self-cleavage of 0.11. Work on C23U A45G A57G yielded a self-cleavage of 0.24. C23U U25C A57U U60C gave a self-cleavage of 0.1. Variant C23U A64U U80C has a self-cleavage of 0.1. G24U U25C U51A U60C U72C showed a self-cleavage of 0.07. Work on G24U U25C G52C U60C U69C yielded a self-cleavage of 0.23. Work on C23U U41C U43A U58C yielded a self-cleavage of 0.2. Variant G24A U25C C39A A45U U51A U54A A65G has a self-cleavage of 0.08. C23G A47G A56G showed a self-cleavage of 0.2. With G24A U26G C27U A56G U66C the self-cleavage was 0.05. For C23G A47G A64G, the self-cleavage was 0.14. In the case of G24A U26G A35G A45U C50U U51C U67A, the self-cleavage is reported as 0.19. In the case of C23U A28U U69G U80A, the self-cleavage is reported as 0.12. In the case of G24A A35G U41C, the self-cleavage is reported as 0.11. For G24A A35G U41G, the self-cleavage was 0.11. With U25A A35G U51C U67C the self-cleavage was 0.08. Work on C23G U26A C38A U54A yielded a self-cleavage of 0.22. G24A G52U U60C showed a self-cleavage of 0.1. For G24A C37U A56G, the self-cleavage was 0.08. In the case of U25A A28G U48C, the self-cleavage is reported as 0.16. For G24A U69A U74C U80C, the self-cleavage was 0.08. Work on C23U C32U U51A yielded a self-cleavage of 0.13. C23U U25C A57U showed a self-cleavage of 0.14. With C23G U31A A56G U67C the self-cleavage was 0.12. G24A U48C U54C showed a self-cleavage of 0.14. G24C C38A U41A U72C gave a self-cleavage of 0.09. Variant C23U U54C C62U has a self-cleavage of 0.11. With C23U U58C U72C the self-cleavage was 0.23. C23U U26A U69A gave a self-cleavage of 0.1. For C23U A56U A64G, the self-cleavage was 0.26. Variant G24A A45G U80C has a self-cleavage of 0.35. For C23G U26A U31A A64U, the self-cleavage was 0.08. In the case of G24A C40A A45U U48C U51C U58C A75G, the self-cleavage is reported as 0.07. G24A C38U A47U showed a self-cleavage of 0.1. G24A C40U U43C U60C A64G U72C showed a self-cleavage of 0.04. C23U U26A C32A A47G U51A showed a self-cleavage of 0.17. Work on C23U A35C A45C G63A U72C yielded a self-cleavage of 0.13. G24A U41A U66C gave a self-cleavage of 0.08. With G24A U41A U78C the self-cleavage was 0.09. For G24A A28G U41C A57G, the self-cleavage was 0.05. G24A A45G U48C U60C G63U A64G showed a self-cleavage of 0.1. Work on C23U U60C U76A yielded a self-cleavage of 0.08. For G24U U48C U69A U78C C81U, the self-cleavage was 0.06. G24U U48C U49A showed a self-cleavage of 0.08. G24U U26C A35G U41A A65G C81U gave a self-cleavage of 0.19. U25A A35G U51C U76A gave a self-cleavage of 0.14. G24A A45G A65G G73A showed a self-cleavage of 0.23. With G24U A65G U78A the self-cleavage was 0.12. Variant U25A A35U A56G A57G has a self-cleavage of 0.16. In the case of C23G A47C U51C A64G U69A, the self-cleavage is reported as 0.1. In the case of C23G G42A U54G, the self-cleavage is reported as 0.07. For C23U C39U A45G U48A, the self-cleavage was 0.04. Variant C23U C39A U67A has a self-cleavage of 0.31. G24A C40U U41C U67C gave a self-cleavage of 0.11. G24A U49C G52A U72A showed a self-cleavage of 0.08. For G24A U25C C50A, the self-cleavage was 0.28. With C23G A64G U76A the self-cleavage was 0.18. In the case of U25A A28G U31A U41G, the self-cleavage is reported as 0.24. Variant G24C G36U U43G U54A A56G U66C has a self-cleavage of 0.08. For G24C C29U U43C A65G, the self-cleavage was 0. In the case of G24A G30A U80C, the self-cleavage is reported as 0.22. G24C U25C A75U gave a self-cleavage of 0.11. U25A A35G C39U U43A U48C U49C U72C showed a self-cleavage of 0.13. For G24U A35G U72C U74C U80C, the self-cleavage was 0.78. In the case of C23U U25C C38U A56G, the self-cleavage is reported as 0.08. G24A A35G U41C U60C U74C C81G gave a self-cleavage of 0. Variant G24A U25C A35G C50A U54A A56U U67C has a self-cleavage of 0.09. With G24A U26C A28G the self-cleavage was 0.19. G24A A35G U60C gave a self-cleavage of 0.15. Variant G24A A47G U49C A56G U72A has a self-cleavage of 0.13. C23U G24A A47G gave a self-cleavage of 0.19. Work on G24A G30U U58C A77U yielded a self-cleavage of 0.07. C23U U43A A56G showed a self-cleavage of 0.41. C23G U26C U54C gave a self-cleavage of 0.08. G24A U41C U72C showed a self-cleavage of 0.19. Variant G24A U54C U60G G63U U78C has a self-cleavage of 0.13. In the case of G24C A35G U69C, the self-cleavage is reported as 0.23. In the case of C23U U26C G36A U66C U72C C81U, the self-cleavage is reported as 0.05. In the case of C23U C29U U41A U43C U69C A75G, the self-cleavage is reported as 0.03. Work on G24A U51G U69A yielded a self-cleavage of 0.16. Work on C23G U31A G33A C81A yielded a self-cleavage of 0.07. Work on C23U U25C A47G yielded a self-cleavage of 0.11. Work on C23G U26A C39U U72A yielded a self-cleavage of 0.14. G24U A28G G30C U31C U48G U74C showed a self-cleavage of 0.07. With C23U G52U A65U U72A the self-cleavage was 0.12. For U25A A28G C38U A56G C62U, the self-cleavage was 0.07. For C23U U43C A47G U49C A64G U72G, the self-cleavage was 0.07.
